According to PubChem BioAssay AID1963442 (Molecular Pharmacology Branch, DTP, NCI, 2024):
A number of entries come with more than one value. The other results are left out here. The source may hold further records. Values given together are repeated measurements across runs, samples, wells, individuals or studies. Signs of the kind (2×) stand for listed records that agree. Dates in brackets are months of testing.

Tested on: MPNST complex spheroid with HUVEC/MSC, growth, % test/control
Experiment: Anticancer human tumor MPNST cell line growth inhibition [Asc];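 further: compounds left on spheroids for seven days before reading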
Details: for IC50: compound alone; for viability, T/C: stronger effect = lower value
Procedure: Multicellular complex tumor spheroid response to apoptosis pathway targeting inhibitors Alrizomadlin, Pelcitoclax, and Dasminapant in combination with a variety of drugs and investigational agents in selected tumor cell lines
The MDM2 inhibitor alrizomadlin, the Bcl-2/Bcl-xL inhibitor pelcitoclax, and the IAPs inhibitor dasminapant were evaluated both individually and in combination with standard of care and investigational anticancer small molecules within a complex spheroid model of solid tumors. . Complex spheroids include a stromal component modeled by human endothelial cells (HUVEC) and fibroblasts modeled by human mesenchymal stem cells (MSCs). The concentration ranges selected for each drug and investigational agent were based upon clinically achievable concentrations if the clinical Cmax of the agent was known.
Compounds. The drugs and investigational agents: alrizomadlin (APG-115; NSC831270), pelcitoclax (APG-1252; NSC835773), dasminapant (APG-1387;NSC834197), TAK-243 (NSC785004), copanlisib (NSC809693), olaparib (NSC753686), talazoparib (NSC767125), cobimetinib (NSC 768068), eltanexor (KPT-8602, NSC 794443), abemaciclib (NSC 768073), sotorasib (NSC818433), adagrasib (NSC 831453), MRTX-1133 (NSC 836407), Iadademestat (ORY1001, NSC 806812), and RMC-4630 (NSC839698), were obtained from the NCI Developmental Therapeutics Program Chemical Repository. The FDA-approved anticancer drug set is available from the Developmental Therapeutics Program at https://dtp.cancer.gov/organization/dscb/obtaining/available plates.htm. […] The stock solutions were prepared in dimethyl sulfoxide (DMSO, Sigma-Aldrich, St. Louis, MO, cat. D2650) at 800-fold the tested concentration and stored at -70 degrees C prior to their use. All drugs and investigational agents were tested over a range starting from a high concentration at or near the clinical Cmax and decreasing in half-log increments. If the clinical Cmax for an agent had not been determined, the highest concentration tested was 10 microM.
The patient-derived cancer (PDC) cell lines include five colon adenocarcinomas: 186277-243-T-J2-PDC, 616215-338-R-J1-PDC, 439559-082-T-J2-PDC, 463943-066-T-J2-PDC, and 519858-162-T-J1-PDC; three pancreatic carcinomas: 323965-272-R-J2-PDC, 521955-158-R6-J3-PDC, and 521955-158-R2-J5-PDC; two uterine sarcomas: 327498-152-R-J2-PDC and 993429-296-R-J1-PDC; two rhabdomyosarcomas: 755483-174-R-J1-PDC and 772245-204-R-J1-PDC; two soft tissue sarcomas: 126254-015-R-J1-PDC and 494315-158-R-J1-PDC; two malignant fibrous histiocytomas: 317291-083-R-J1-PDC and 596521-263-R-J1-PDC; two breast carcinomas: 171881-019-R-J1-PDC and 885512-296-R-J2-PDC; and one ovarian carcinoma: 6556581-035-R-J-PDC were obtained from the NCI PDMR, (https://pdmr.cancer.gov). The established cell lines HSSY-2 synovial sarcoma (RRID:CVCL 8719), SYO-1 synovial sarcoma (RRID:CVCL_7146), MPNST malignant peripheral neural sheath tumor were obtained from the Sloan Kettering Institute. The following established cell lines were purchased from the American Type Culture Collection (ATCC, Manassas, VA), Sor the received from the NCI repository:, PANC-1 pancreatic carcinoma (CRL-1469, RRID:CVCL_0480), OVCAR-5 ovarian carcinoma (RRID:CVCL_1628), OVCAR-8 ovarian carcinoma (RRID:CVCL_1629), , MCF-7 breast carcinoma (CRL-12584, RRID:CVCL_0031), MDA-MB-231 breast carcinoma (CRL-12532, RRID:CVCL_0062), NCI-H1876 small cell lung carcinoma (CRL-5902, RRID:CVCL_1503), NCI-H510A small cell lung carcinoma (HTB-184, RRID:CVCL_1565), NCI-H1417 (CRL-5869, RRID:CVCL_1469), and NCI-H196 small cell lung carcinoma (CRL-5823, RRID:CVCL_1509). Dr. Peter Houghton (Greehey Children's Cancer Research Institute, University of Texas Health Science Center, San Antonio, TX) provided Rh-18 rhabdomyosarcoma (RRID:CVCL_1659). Pooled donor human umbilical vein endothelial cells (HUVEC, Lonza, cat. CC-2519) and human mesenchymal stem cells (hMSC, Lonza, cat. PT-2501) were purchased from Lonza (Walkersville, MD).
Cell Culture. […]

NC(=O)C(=Cn1cnc(-c2cc(C(F)(F)F)cc(C(F)(F)F)c2)n1)c1cncnc1
IC50: 24.9 nM, > 300 nM [2022-10] and < 0.949 nM [2022-11]

C=C(F)C(=O)N1CCN(c2nc(OCC3CCCN3C)nc3c2CCN(c2cccc4cccc(Cl)c24)C3)CC1CC#N (centres undefined)
viability, T/C (compound alone 10 µM): 75.3%, 61% [2022-10] and 1.96% [2022-11]

Cc1c(S(C)(=O)=O)c(-c2cc(F)cc(N3CCN(c4ccc(NS(=O)(=O)c5ccc(NC(CCN6CCC(C(=O)OCCCP(=O)(O)O)CC6)CSc6ccccc6)c(S(=O)(=O)C(F)(F)F)c5)cc4)CC3)c2)c(-c2ccc(Cl)cc2)n1C(C)C (centres undefined)
viability, T/C (compound alone 0.1 µM): 70.1, 56.5, 58.2, 79.8, 65.2, 61.8, 64.3, 66.6, 54, 59, 58.3, 82.2, 72.3, 104%
viability, T/C (compound alone 0.316 µM): 64.5, 90, 79, 75, 108, 57.9, 64.6, 68.3, 87.8, 70.8, 73.3, 131, 91.9, 135%
viability, T/C (compound alone 1 µM): 104 (2×), 79.7, 88.2, 90.2, 85, 79.2, 93.9, 78.2, 96.6, 77, 130, 91.8, 108%
viability, T/C (compound alone 3.16 µM): 86.2, 93.7, 69.3, 74.8, 91.1, 61.9, 69.4, 71.1, 60.7, 94.6, 74.1, 103 (2×), 88.5%
viability, T/C (compound alone 10 µM): 68.2, 67.5, 72, 61.9, 92.5, 70.4, 71.9, 78.5, 74.5, 68.4, 71, 154, 99.9, 124%

CNC(C)C(=O)NC1CN(S(=O)(=O)c2cccc(S(=O)(=O)N3CCC4CCC(C(=O)NC(c5ccccc5)c5ccccc5)N4C(=O)C(NC(=O)C(C)NC)C3)c2)CCC2CCC(C(=O)NC(c3ccccc3)c3ccccc3)N2C1=O (centres undefined)
viability, T/C (compound alone 0.00316 µM): 93.6%, 120% [2022-10] and 12.5, 58.4, 49.3, 86.2, 76.3, 74.5, 62.8% [2022-11]
viability, T/C (compound alone 0.01 µM): 83.9%, 137% [2022-10] and 47.7, 82, 67, 84.3, 99.4, 81.1, 67.8% [2022-11]
viability, T/C (compound alone 0.0316 µM): 86%, 111% [2022-10] and 65.2, 112, 78, 83.2, 94.8, 74.1, 85.5% [2022-11]
viability, T/C (compound alone 0.1 µM): 78.3%, 104% [2022-10] and 81.3, 98.2, 87, 92.7, 109, 61.5, 93% [2022-11]
viability, T/C (compound alone 0.316 µM): 86.5%, 105% [2022-10] and 88.6, 86.1, 79.6, 74.4, 127, 78.1, 104% [2022-11]
viability, T/C (compound alone 1 µM): 121%, 103% [2022-10] and 73.3, 90, 93.3, 81.1, 101, 73.5, 81.4% [2022-11]
IC50 (run of 11/15/2022): < 3.16 nM and > 1 µM

CCN1C(C(=O)NC23CCC(C(=O)O)(CC2)CC3)C(c2cccc(Cl)c2F)C2(C(=O)Nc3cc(Cl)ccc32)C12CCCCC2 (centres undefined)
viability, T/C (compound alone 0.03 µM): 92.7, 81, 87.1, 98, 56.3, 63.5, 79.8, 68.1, 74.4, 51.9, 70.3, 67, 76.6, 96.6% [2022-10] and 80.6% [2022-11]
viability, T/C (compound alone 0.0949 µM): 124, 111, 103, 126, 78.9, 91.3, 86.2, 107, 89.7, 71.5, 83.7, 85.3, 92.5, 97.6% [2022-10] and 92.6% [2022-11]
viability, T/C (compound alone 0.3 µM): 98.3, 110, 89.2, 129, 83.5, 101 (2×), 89.7, 102, 81.1, 96.5, 86.7, 76.5, 105% [2022-10] and 80.5% [2022-11]
viability, T/C (compound alone 0.949 µM): 104 (2×), 105, 86.8, 113, 87.2, 87.4, 94.3, 86, 80.4, 90.2, 74.6, 88.5, 83.3% [2022-10] and 59.4% [2022-11]
viability, T/C (compound alone 3 µM): 105, 92.3, 70, 95.7, 60.8, 69.3, 70.6, 74.7, 73 (2×), 76.6, 69.4, 64.9, 68.4% [2022-10] and 42.7% [2022-11]
